Binding signal data for 32 sequences are collected here from article PMC12820563, “FoxP3 forms a head-to-head dimer in vivo and stabilizes its multimerization on adjacent microsatellites”.

The list shows a part of the results.

This test addresses T1, MBP-FoxP1dN (Mus musculus, UniProt P58462 326-579).
T1 sequence: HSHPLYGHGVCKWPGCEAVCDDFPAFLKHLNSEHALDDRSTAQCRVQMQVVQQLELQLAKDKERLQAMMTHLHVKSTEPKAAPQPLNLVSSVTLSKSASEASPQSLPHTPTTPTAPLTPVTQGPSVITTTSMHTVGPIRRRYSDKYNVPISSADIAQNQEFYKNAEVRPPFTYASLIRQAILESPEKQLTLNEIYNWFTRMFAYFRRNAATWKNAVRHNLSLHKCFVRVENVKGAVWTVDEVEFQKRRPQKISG
The test can be described thus: PD-seq (MBP pull-down with sequencing); 20 mM Tris-HCl pH 7.5, 100 mM NaCl, 1.5 mM MgCl2, 0.4 uM protein, 0.1 uM dsDNA library, 30 min, room temperature, amylose pull-down; high values mean tight binding. As to conditions: protein: recombinant; tags: His6-MBP; chain copies: 2; dsDNA, one strand shown. The method, boiled down:
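Protein and DNA were mixed at 0.4 µM and 0.1 µM and held for 30 min at room temperature in Tris pH 7.5 buffer with NaCl and MgCl2; the protein was a His6-MBP-tagged, N-terminally truncated mouse FoxP3 or FoxP1 fragment from E. coli, and the DNA a Klenow-filled double-stranded degenerate library. Amylose resin captured the complexes, which were washed three times. Binding is read as reads-per-million enrichment of pull-down versus input after Illumina sequencing, with replicates pooled.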
“GATGATTGTTCTCCCAGCTGATGAATTGTTCGCATCGAGTAAACAAATTTTCCTAATCTTTCTGTTCAAGCGCCATCTAC”: the binding signal is 1.34 RPM ratio (pull-down/input).
In the case of “GATGATTGTTCTCCCAGCTGATGAATTAGCGTATTCGAGTAAACAAATTTTCCTAATCTTTCTGTTCAAGCGCCATCTAC” it was 0.969 RPM ratio (pull-down/input).
In the case of “GATGATTGTTCTCCCAGCTGATGAATTTCGTTAGTCGAGTAAACAAATTTTCCTAATCTTTCTGTTCAAGCGCCATCTAC” it was 0.911 RPM ratio (pull-down/input); in that of “GATGATTGTTCTCCCAGCTGATGAATTGCACGGGTCGAGTAAACAAATTTTCCTAATCTTTCTGTTCAAGCGCCATCTAC”, 0.957 RPM ratio (pull-down/input); in that of “GATGATTGTTCTCCCAGCTGATGAATTCTGAATCTCGAGTAAACAAATTTTCCTAATCTTTCTGTTCAAGCGCCATCTAC”, 0.782 RPM ratio (pull-down/input).
Take “GATGATTGTTCTCCCAGCTGATGAATTGTTTCTTTCGAGTAAACAAATTTTCCTAATCTTTCTGTTCAAGCGCCATCTAC”: the binding signal was 1.58 RPM ratio (pull-down/input).
In the case of “GATGATTGTTCTCCCAGCTGATGAATTATTATGGTCGAGTAAACAAATTTTCCTAATCTTTCTGTTCAAGCGCCATCTAC” it was 1.24 RPM ratio (pull-down/input); in that of “GATGATTGTTCTCCCAGCTGATGAATTGGACTACTCGAGTAAACAAATTTTCCTAATCTTTCTGTTCAAGCGCCATCTAC”, 0.785 RPM ratio (pull-down/input).
The value for “GATGATTGTTCTCCCAGCTGATGAATTGGCGTGTTCGAGTAAACAAATTTTCCTAATCTTTCTGTTCAAGCGCCATCTAC” was 0.991 RPM ratio (pull-down/input); that for “GATGATTGTTCTCCCAGCTGATGAATTTTGACCCTCGAGTAAACAAATTTTCCTAATCTTTCTGTTCAAGCGCCATCTAC” was 0.832 RPM ratio (pull-down/input).
In the case of “GATGATTGTTCTCCCAGCTGATGAATTGCCTCTCTCGAGTAAACAAATTTTCCTAATCTTTCTGTTCAAGCGCCATCTAC” it was 0.972 RPM ratio (pull-down/input); in that of “GATGATTGTTCTCCCAGCTGATGAATTAATGCAGTCGAGTAAACAAATTTTCCTAATCTTTCTGTTCAAGCGCCATCTAC”, 1.27 RPM ratio (pull-down/input); in that of “GATGATTGTTCTCCCAGCTGATGAATTTGTTGTATCGAGTAAACAAATTTTCCTAATCTTTCTGTTCAAGCGCCATCTAC”, 2.21 RPM ratio (pull-down/input).
For the sequence “GATGATTGTTCTCCCAGCTGATGAATTGTAGTGCTCGAGTAAACAAATTTTCCTAATCTTTCTGTTCAAGCGCCATCTAC”, the binding signal is 1.04 RPM ratio (pull-down/input).
The value for “GATGATTGTTCTCCCAGCTGATGAATTCAGATTGTCGAGTAAACAAATTTTCCTAATCTTTCTGTTCAAGCGCCATCTAC” was 0.994 RPM ratio (pull-down/input).
In the case of “GATGATTGTTCTCCCAGCTGATGAATTGGACTGGTCGAGTAAACAAATTTTCCTAATCTTTCTGTTCAAGCGCCATCTAC” it was 0.832 RPM ratio (pull-down/input); in that of “GATGATTGTTCTCCCAGCTGATGAATTTGTGCTCTCGAGTAAACAAATTTTCCTAATCTTTCTGTTCAAGCGCCATCTAC”, 1.08 RPM ratio (pull-down/input).
As to “GATGATTGTTCTCCCAGCTGATGAATTGGAGAGTTCGAGTAAACAAATTTTCCTAATCTTTCTGTTCAAGCGCCATCTAC”, the binding signal is 0.803 RPM ratio (pull-down/input).
Consider “GATGATTGTTCTCCCAGCTGATGAATTGCTCAGGTCGAGTAAACAAATTTTCCTAATCTTTCTGTTCAAGCGCCATCTAC”, for which the binding signal was 0.832 RPM ratio (pull-down/input).
With “GATGATTGTTCTCCCAGCTGATGAATTTGACTCCTCGAGTAAACAAATTTTCCTAATCTTTCTGTTCAAGCGCCATCTAC”, the binding signal is 0.809 RPM ratio (pull-down/input).
For the sequence “GATGATTGTTCTCCCAGCTGATGAATTCTTTCGGTCGAGTAAACAAATTTTCCTAATCTTTCTGTTCAAGCGCCATCTAC”, the binding signal is 0.84 RPM ratio (pull-down/input).
The value for “GATGATTGTTCTCCCAGCTGATGAATTATAAGGGTCGAGTAAACAAATTTTCCTAATCTTTCTGTTCAAGCGCCATCTAC” was 0.839 RPM ratio (pull-down/input); that for “GATGATTGTTCTCCCAGCTGATGAATTTAATCTCTCGAGTAAACAAATTTTCCTAATCTTTCTGTTCAAGCGCCATCTAC” was 0.896 RPM ratio (pull-down/input).
The value for “GATGATTGTTCTCCCAGCTGATGAATTACTTTTTTCGAGTAAACAAATTTTCCTAATCTTTCTGTTCAAGCGCCATCTAC” was 1.28 RPM ratio (pull-down/input); that for “GATGATTGTTCTCCCAGCTGATGAATTCGCGTATTCGAGTAAACAAATTTTCCTAATCTTTCTGTTCAAGCGCCATCTAC” was 0.979 RPM ratio (pull-down/input); that for “GATGATTGTTCTCCCAGCTGATGAATTTAGTTACTCGAGTAAACAAATTTTCCTAATCTTTCTGTTCAAGCGCCATCTAC” was 1.15 RPM ratio (pull-down/input).
The value for “GATGATTGTTCTCCCAGCTGATGAATTCCGACGTTCGAGTAAACAAATTTTCCTAATCTTTCTGTTCAAGCGCCATCTAC” was 0.859 RPM ratio (pull-down/input); that for “GATGATTGTTCTCCCAGCTGATGAATTAGCCTGGTCGAGTAAACAAATTTTCCTAATCTTTCTGTTCAAGCGCCATCTAC” was 0.765 RPM ratio (pull-down/input); that for “GATGATTGTTCTCCCAGCTGATGAATTTGCCGCTTCGAGTAAACAAATTTTCCTAATCTTTCTGTTCAAGCGCCATCTAC” was 0.897 RPM ratio (pull-down/input).
As to “GATGATTGTTCTCCCAGCTGATGAATTCCCCCCGTCGAGTAAACAAATTTTCCTAATCTTTCTGTTCAAGCGCCATCTAC”, the binding signal was 0.765 RPM ratio (pull-down/input).
“GATGATTGTTCTCCCAGCTGATGAATTTAAGCGCTCGAGTAAACAAATTTTCCTAATCTTTCTGTTCAAGCGCCATCTAC”: the binding signal was 0.841 RPM ratio (pull-down/input).
As to “GATGATTGTTCTCCCAGCTGATGAATTGATCCGGTCGAGTAAACAAATTTTCCTAATCTTTCTGTTCAAGCGCCATCTAC”, the binding signal is 0.845 RPM ratio (pull-down/input).
